Experimental findings from patent US20260092110A1 (Kyowa Kirin, published 2026) are described below.

For assay [1], the target named is extracellular domain protein of human MOG to which FLAG-Fc is added at the C-terminus (hMOG-FLAG-Fc) (human). The assay can be described thus: phage ELISA.
Assay [2] addresses T1, human MOG (hMOG) expressed on HEK293, Expi293F or L929 cells (human, UniProt Q16653 30-247).
T1 construct: also called hMOG/HEK293; hMOG/HEK293F
T1 chain: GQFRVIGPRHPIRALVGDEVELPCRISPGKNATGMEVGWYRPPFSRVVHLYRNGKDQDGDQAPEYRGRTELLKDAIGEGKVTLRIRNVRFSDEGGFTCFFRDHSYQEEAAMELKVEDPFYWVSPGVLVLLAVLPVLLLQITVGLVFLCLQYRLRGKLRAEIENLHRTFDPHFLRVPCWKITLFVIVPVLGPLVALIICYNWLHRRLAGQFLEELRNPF
The assay can be described thus: phage clone on hMOG/Expi293F cells.

Assay [3] addresses extracellular domain protein of human MOG to which GST is added at the C-terminus (hMOG-GST) (human). The assay can be described thus: SPR, antibody captured, hMOG-GST analyte. The protocol:
The antibodies were immobilized on CM5 sensor chips using a Human antibody Capture kit, and the binding abilities were evaluated using rMOG-GST produced in Example 4 as an analyte. The obtained sensorgrams were analyzed with BIA evaluation software, and the dissociation constants (KD values) were thus calculated.
The results of evaluation of the affinities to human MOG are shown in Table 14, and the results of evaluation of the affinities to mouse MOG are shown in Table 15.
In general terms: In SPR one partner is held on a chip, and binding of the other changes the refractive index at the surface.

B1: MOG319 (scFv phage clone similar to MOG310 antibody) (scFv)
scFv: QVQLVQSGAEVKKPGSSVKVSCKASGGTFSRYAISWVRQAPGQGLEWMGGIIPMFSTANYAQKFQGRVTITADESTSTAYMELSSLRSDDTAVYYCARDWAVAGMGFNYWGQGTLVTVSSGGGGSGGRASGGGGS[about 100 residues omitted]
With B1, the binding result in assay [1] and in assay [2] was “binds” each time.

B2: MOG478 (scFv phage clone similar to MOG310 antibody) (scFv)
scFv: EVQLVQSGAEVKKPGSSVKVSCKASGGTFSRYAISWVRQAPGQGLEWMGGIIPMFATANYAQKFQARVTITADETTSTAYMELSSLRSEDTGVYYCARDWAVAAMGFAHWGQGTLVTVSSGGGGSGGRASGGGGS[about 100 residues omitted]
Regarding B2, the binding result in assay [1] and in assay [2] was “binds” throughout.

B3: MOG359 (scFv phage clone similar to MOG310 antibody) (scFv)
scFv: EVQLVQSGAEVKKPGSSVKVSCKASGGTFSRYAISWVRQAPGQGLEWMGGIIPMFNTANYAQKFQGRVTITADESTSTAYMELSSLRSEDTAVYYCARDWAVAGMGFNYWGQGTLVTVSSGGGGSGGRASGGGGS[about 100 residues omitted]
Take B3: the binding result in assay [1] and in assay [2] was “binds” throughout.

B4: MOG320 (scFv phage clone similar to MOG310 antibody) (scFv)
scFv: QVQLVQSGAEVKKPGSSVKVSCKASGGTFSRYAINWVRQAPGQGLEWMGGIIPMFSTVNYAQKFQGRVTITADESTSTAYMELSSLRSEDTAVYYCARDWAVAGMGFDYWGQGTLVTVSSGGGGSGGRASGGGGS[about 100 residues omitted]FGPGTKVDIK
In the case of B4, the binding result in assay [1] and in assay [2] was “binds” throughout.

B5: MOG456 scFv-hG4PE(R409K) antibody (Fc fusion)
chain: EVQLVESGGGLVKPGGSLRLSCAASGFTFSSYSMHWVRQAPGKGLEWVSSIGSRSRYIYYADSVKGRFTISRDNAKNSLYLQMNSLRAEDTAVYYCAKGYYDILTGSLFDYWGQGTLVTVSSGGGGSGGRASGGGGSDIVMTQSPSSLSASVGDRVTITCRASQGISSALAWYQQKPGKAPKLLIYDASSLESGVPSRFSGSGSGTDFTLTISSLQPEDFATYYCQQFNSYPWTFGQGTKVEIK[human IgG4 Fc with S228P L235E R409K (EU numbers) omitted]
notes: scFv-Fc
On to B5, for which, in assay [3], the Kd (as a rule, the concentration at which binding is half-saturated) amounted to 0.25 nM; the koff (commonly the rate constant with which the complex falls apart) stood at 0.00026 s⁻¹; the association rate constant (kon) (as a rule, the rate constant with which the complex forms) is 1e+06 M⁻¹ s⁻¹.

B6: MOG303 scFv-hG4PE(R409K) antibody (Fc fusion)
scFv-Fc: [about 100 residues omitted]GGYDILTGYFFDYWGQGTTVTVSSGGGGSGGRASGGGGSAIQMTQSPSSLSASVGDRVTITCRASQGISSALAWYQQKPGKAPKLLIYDASSLESGVPSRFSGSGSGTDFTLTISSLQPEDFATYYCQQFNSYPFTFGPGTRLEIK[human IgG4 Fc with S228P L235E R409K (EU numbers) omitted]
notes: scFv-Fc
For the molecule B6, in assay [3], the Kd is 0.17 nM, the koff came out at 0.00016 s⁻¹ and the kon is 910000 M⁻¹ s⁻¹.

B7: MOG329 scFv-hG4PE(R409K) antibody (Fc fusion)
chain: QVQLVESGGGLVQPGGSLRLSCAASGFAFRNYAMNWVRQAPGKGLEWVSAISGSGGSTYYADSVKGRFTISRDNSKNTLYLQMNSLRAEDTAVYYCARDYGGISPFDYWGQGTLVTVSSGGGGSGGRASGGGGSDIQLTQSPSSLSASVGDRVTITCRASQGISSALAWYQQKPGKAPKLLIYDASSLESGVPSRFSGSGSGTDFTLTISSLQPEDFATYYCQQFNSYPHTFGQGTKVDIK[human IgG4 Fc with S228P L235E R409K (EU numbers) omitted]
notes: scFv-Fc
Turning to B7, in assay [3], binding was characterised by a dissociation constant (Kd) of 0.13 nM, the koff was found to be 0.00021 s⁻¹ and the kon was found to be 1.6e+06 M⁻¹ s⁻¹.

B8: MOG301 scFv-hG4PE(R409K) antibody (Fc fusion)
scFv-Fc: QVQLVQSGAEVKKPGASVKVSCKASGYSFTSYGINWVRQAPGQGLEWMGWISAYNGYTNYAQKLQGRVTMTRDTSTRTAYMELRSLRSDDTAVYYCAREYDILTGYSDAFDIWGQGTLVTVSSGGGGSGGRASGGGGS[about 350 residues with a human IgG4 Fc omitted]
notes: scFv-Fc
For B8, in assay [3], the Kd stood at 0.18 nM, the koff was found to be 0.00018 s⁻¹ and the kon came to 1.1e+06 M⁻¹ s⁻¹.

B9: MOG428 (scFv phage clone similar to MOG301 antibody) (scFv)
scFv: EVQLVQSGAEVKKPGASVKVSCKASGYSFNSYGINWVRQAPGQGLEWMGWISAYTGKTSYAQKVQGRVTMTTDRSTSTAYMELRSLRSDDTAMYYCAREYDILTGYSDAFDTWGQGTMVTVSSGGGGSGGRASGGGGS[about 100 residues omitted]
Regarding B9, the binding result in assay [1] and in assay [2] was “binds” in each case.

B10: MOG446 scFv-hG4PE(R409K) antibody (Fc fusion)
chain: QVQLVESGGGVVRPGGSLRLSCAASGFTFDDYGMSWVRQAPGKGLEWVSNINWNGDSTGYVDSVKGRFTISRDNAKNSLYLQMNSLRAEDTALYYCARARTYYYVSGRYYFDYWGQGTLVTVSSGGGGSGGRASGGGGSDIQMTQSPSSLSASVGDRVTITCRASQGISSALAWYQQKPGKAPKLLIYDASSLESGVPSRFSGSGSGTDFTLTISSLQPEDFATYYCQQFNSYPLTFGGGTKVEIK[human IgG4 Fc with S228P L235E R409K (EU numbers) omitted]
notes: scFv-Fc
For B10, in assay [3], the Kd was 0.87 nM, the koff turned out to be 0.00017 s⁻¹ and the kon worked out at 190000 M⁻¹ s⁻¹.

B11: MOG313 (scFv phage clone similar to MOG303 antibody) (scFv)
scFv: [about 100 residues omitted]AYYDILTGSLFDSWGQGTLVTVSSGGGGSGGRASGGGGSDIVMTQSPSSLSASVGDRVTITCRASQGISSALAWYQQKPGKAPKLLIYDASSLESGVPSRFSGSGSGTDFTLTISSLQPEDFATYYCQQFNSYPLTFGGGTKVEIK
As for B11, the binding result in assay [1] and in assay [2] was “binds” throughout.
